Reference: the RNAGym collection of RNA variant scans (doi:10.1093/nar/gkz1192)
Read counts are not given, so values of variants with three or more changes are uncertain.

B1: CPEB3 Ribozyme (parent)
chain: UAACAGGGGGCCACAGCAGAAGCGUUCACGUCGCAGCCCCUGUCAGAUUCUGGUGAAUCUGCGAAUUCUGCUGUAUAUCUC

Variants of: B1
Assay: self-cleavage, relative activity (ratio to wild type); higher = more cleavage; in vitro, sequencing
In short: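 Relative activity was defined as the cleaved/total read fraction for a variant divided by the same fraction for the unmutated ribozyme. CPEB3 self-cleaving ribozyme libraries were made by rounds of error-prone PCR, barcoded, and transcribed in vitro with T7 RNA polymerase for 5 hours at 37°C, and cleavage ran through transcription plus a 15 min DNase I step before EDTA. Illumina sequencing of template-switched reverse transcripts gave the reads, and DNA sequencing mapped the barcodes. Averages come from three batches, using variants with at least 5 reads.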
For A21G U48C U66C, the self-cleavage was 0.23. A21G U41C A57G C68U gave a self-cleavage of 0.25. Work on A21U U31A U51C yielded a self-cleavage of 0.14. A21G U31C U67C showed a self-cleavage of 0.36. For A21U A35U U78C, the self-cleavage was 0.09. With A21G U54A G61A the self-cleavage was 0.23. In the case of A21G U41A U69A, the self-cleavage is reported as 0.18. For A21U C37A U78C, the self-cleavage was 0.4. Variant A21G U54A U58C A77U has a self-cleavage of 0.18. Variant A21U U25A G55A has a self-cleavage of 0.09. In the case of A21U U41C U60C U80C, the self-cleavage is reported as 0.23. For A21U U49C G63A U69C, the self-cleavage was 0.1. Work on A21U U25C C44U U72C yielded a self-cleavage of 0.05. Work on A21U G33C A64U C68U yielded a self-cleavage of 0.15. For A21U U25C G30A U41A, the self-cleavage was 0.08. Work on A21G U31C U67C C68G yielded a self-cleavage of 0.06. A21G U43A U60C U76A gave a self-cleavage of 0.11. A21G U72A U78C showed a self-cleavage of 0.25. A21G U51G A65G gave a self-cleavage of 0.18. G22A A28U A57G U66G gave a self-cleavage of 0.11. With A21G U49C U69C the self-cleavage was 0.08. Variant A21G U43C A45U A47U U49C has a self-cleavage of 0.07. Variant A21U U58A C81A has a self-cleavage of 0.2. A21U U69A U78C gave a self-cleavage of 0.18. Variant A21U A47G A56G has a self-cleavage of 0.25. In the case of A21U G33A A45G U72C, the self-cleavage is reported as 0.21. For A21G U43C U54C U58C A64U, the self-cleavage was 0.16. Work on A21U G33A U66A yielded a self-cleavage of 0.06. In the case of A21G U49C U78G, the self-cleavage is reported as 0.12. For A21G U43C A65G, the self-cleavage was 0.14. In the case of A21G U41C U54C, the self-cleavage is reported as 0.63. Work on A21U U48C U66C yielded a self-cleavage of 0.18. With A21G U41A U54A U66C U69C U72C A75G the self-cleavage was 0.06. A21U U60C U72G A75G gave a self-cleavage of 0.08. Variant A21U U31G C38U A57G U58C U72C has a self-cleavage of 0.14. Work on A21G U60C U67A A77U U78C yielded a self-cleavage of 0.11. Variant A21U U51A U69A C79U has a self-cleavage of 0.14. A21G U49C U72C gave a self-cleavage of 0.1. For A21G U43C U67G, the self-cleavage was 0.13. For A21U U26A U49C A57G U67C, the self-cleavage was 0.03. For A21G U48C U49C, the self-cleavage was 0.18. A21U U31A C44G gave a self-cleavage of 0.17. For A21U C23A U43A A45U A65G, the self-cleavage was 0.15. For A21U U69A U74C A75G, the self-cleavage was 0.13. For G22A A28C A45G, the self-cleavage was 0.18. Work on A21U U51C U54C U66C A77U U80A yielded a self-cleavage of 0.22. With A21G U60A A77U the self-cleavage was 0.18. Variant A21G U48C U78C has a self-cleavage of 0.24. In the case of A21U C23A U25C U72A, the self-cleavage is reported as 0.05. With A21G U43C U66G the self-cleavage was 0.25. In the case of A21U U69C U80C, the self-cleavage is reported as 0.35. Variant A21G U43C A56G U69C U72A has a self-cleavage of 0.07. In the case of A21U U25C C32U U43G U76C, the self-cleavage is reported as 0.17. Work on A21U A64G U72C yielded a self-cleavage of 0.17. Work on A21U U51A U72A yielded a self-cleavage of 0.15. In the case of A21G U48C U76A, the self-cleavage is reported as 0.25. In the case of A21G U49A A56G, the self-cleavage is reported as 0.23. With A21G U76C U80C the self-cleavage was 0.86. In the case of A21G U67C U76A, the self-cleavage is reported as 0.15. In the case of A21G U67C U76C, the self-cleavage is reported as 0.11. A21U U43C A56G U58C A77U showed a self-cleavage of 0.05. In the case of A21U U25C U69C U78C, the self-cleavage is reported as 0.15. For A21U C29U G33A C38A U54A U67C U76A, the self-cleavage was 0.04. In the case of A21G U67C U72C, the self-cleavage is reported as 0.3. Work on A21G U69C U78C yielded a self-cleavage of 0.23. A21G U60C A65G showed a self-cleavage of 0.17. Work on A21G U72C A75G yielded a self-cleavage of 0.3. A21G U43C U54C A56G U69C U80C showed a self-cleavage of 0.31. Variant A21G U49C A77C has a self-cleavage of 0.09. Work on A21G U43C U51A A64G U69C U72C yielded a self-cleavage of 0.07. A21U C39U U41C gave a self-cleavage of 0.43. A21G U51C U72C U80A gave a self-cleavage of 0.21. Variant A21G U69C U72A has a self-cleavage of 0.16. G22A A28G U67C U80C showed a self-cleavage of 0.06. In the case of A21G U72C U80C, the self-cleavage is reported as 0.98. Work on A21G U41A U54C A56G C62U yielded a self-cleavage of 0.08. A21U U41A U80C gave a self-cleavage of 0.26. With A21U U26C C39U A47U the self-cleavage was 0.14. In the case of A21U G36C U51G C81U, the self-cleavage is reported as 0.1. With A21U U43C U67C the self-cleavage was 0.12. Work on A21U U43A U54C yielded a self-cleavage of 0.45. A21U A28G A47G showed a self-cleavage of 0.16. For A21U A28G A47U, the self-cleavage was 0.14. With A21U U26C U72C the self-cleavage was 0.26. A21U A28G U41A C59A gave a self-cleavage of 0.09. With A21G U49A A57G the self-cleavage was 0.14. Variant A21U U31C U54A A64U has a self-cleavage of 0.11. For A21U U43A U48C, the self-cleavage was 0.3. A21U U41A A64G C68A U72A showed a self-cleavage of 0.05. Variant A21U U31A A45G A56U U66C has a self-cleavage of 0.1. Work on A21G U43C U48C G53A U60A U69C yielded a self-cleavage of 0.16. With A21G U54A U66C the self-cleavage was 1.16. Work on A21U A28U U41G U43C A47G U78C yielded a self-cleavage of 0.21. A21G U41C A45U A64G showed a self-cleavage of 0.16. G22A A28U U41C A45C A56U A77G showed a self-cleavage of 0.16. Work on A21U U69C U72C yielded a self-cleavage of 0.13. A21U U25C U41A gave a self-cleavage of 0.4. A21G U41A A64G U72A showed a self-cleavage of 0.08. With A21U A35U G52A U54C U60C U69C A77G the self-cleavage was 0.09. With A21U G36C U48A the self-cleavage was 0.15. G22A A28G U41C U49C U51C A56G U69A showed a self-cleavage of 0.14. With A21G U41C U72C the self-cleavage was 0.56. Work on A21U C38A A45U U51A G52A A75U U78C yielded a self-cleavage of 0.07. Variant A21G U48C A64G has a self-cleavage of 0.2. For A21G U66C A77C, the self-cleavage was 1.04. In the case of A21G U43C C62U, the self-cleavage is reported as 0.11. A21U A56C A65G gave a self-cleavage of 0.06. Variant A21G U69C C71A has a self-cleavage of 0.11. In the case of A21U U60C U69A, the self-cleavage is reported as 0.09. A21G U43C G52A gave a self-cleavage of 0.17. Variant A21G U41A U60C U80C has a self-cleavage of 0.19. For A21U U25A A35G U58C U80C, the self-cleavage was 0.25. In the case of A21U U43G C62U, the self-cleavage is reported as 0.4. A21U A28G A64G A65G showed a self-cleavage of 0.04. Work on A21U U41G U60A yielded a self-cleavage of 0.18. Variant A21U U48C U49A has a self-cleavage of 0.32. With A21U C39A A56U U60A A65G U67G the self-cleavage was 0.06. With A21U C29G A45U A57G A64G U69A the self-cleavage was 0.09. A21U C23A U67A gave a self-cleavage of 0.15. Work on A21G U67A C68A U80A yielded a self-cleavage of 0.12. A21U C39A U41A gave a self-cleavage of 0.21. A21U A47G U60A U80C gave a self-cleavage of 0.16. In the case of A21U A45G U80C, the self-cleavage is reported as 0.12. With A21G U51A U54C A75U U78C the self-cleavage was 0.8. Variant A21G U41A U58C U67C has a self-cleavage of 0.09. A21G U41C A47G U54C gave a self-cleavage of 0.56. For A21G U43C C71U, the self-cleavage was 0.26. A21G U41A A64U A75G gave a self-cleavage of 0.1. Variant A21U A45G U51C U78A has a self-cleavage of 0.22. For A21G U43C A65G U69A, the self-cleavage was 0.26. A21G U41C C50A U67C gave a self-cleavage of 0.03. In the case of A21U G24A U41A A64G U69A, the self-cleavage is reported as 0.03. A21U A35G U48C C50U G61A gave a self-cleavage of 0.19. A21U C38G U49C G73C gave a self-cleavage of 0.06. Variant A21U U25C A47G A65G G70A A75U has a self-cleavage of 0.03. With A21U U51C G53U A64G U69C the self-cleavage was 0.11. Variant A21G U43A U54A U80C has a self-cleavage of 0.84. A21U G22A U25C U58A gave a self-cleavage of 0.11. Work on A21G U41C U66C U69A yielded a self-cleavage of 0.19. Variant A21U U25C U72G has a self-cleavage of 0.07. For A21U U25C U72C, the self-cleavage was 0.15. For A21U U51C A64G, the self-cleavage was 0.08. Variant A21G U51A C68U A75G has a self-cleavage of 0.28. In the case of A21G U51A A64U, the self-cleavage is reported as 0.16. A21U U31C C59U gave a self-cleavage of 0.11. A21G U54A A65G U72G showed a self-cleavage of 0.22. A21G U41A U74C showed a self-cleavage of 0.11. Work on A21G U48A U69A yielded a self-cleavage of 0.1. With A21U A35U U41A A57G the self-cleavage was 0.35. Work on A21G U41C C68G yielded a self-cleavage of 0.14. Variant A21U U25C A47G has a self-cleavage of 0.43. A21G U60A U67C C68G gave a self-cleavage of 0.18. Variant A21U U43A A56G U69C has a self-cleavage of 0.1. A21G U51A A57U G73A showed a self-cleavage of 0.74. A21G U41A A75G gave a self-cleavage of 0.5. With A21U C32U U41C U74G A75G the self-cleavage was 0.03. For A21U U26C U31C U60C, the self-cleavage was 0.12. With A21G U43C U72C the self-cleavage was 0.35. A21G U43C U72G showed a self-cleavage of 0.31. A21G U41A U51A C68A showed a self-cleavage of 0.18. Variant A21G U72A U80C has a self-cleavage of 0.7. A21U A56G U58A gave a self-cleavage of 0.14. A21U U41C U67A gave a self-cleavage of 0.37. Variant A21U A28G G61A has a self-cleavage of 0.29. Variant A21U A35G U74C has a self-cleavage of 0.68. A21U U51C U58C U76A showed a self-cleavage of 0.11. With A21G U41C U48C A65U U69A G73A the self-cleavage was 0.07.
